The text below walks through data of the supplement of paper PMC4723716.

In the experiment the test system is Plasmodium falciparum NF54 stage V gametocytes. Description: viability index relative to DMSO control (fraction); higher = less gametocyte killing. As to conditions: 2.5 µM, incubation time: 72 h. An outline of the steps:
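Gametocytes (P. falciparum NF54, stage V) were treated with compound at 2.5 µM for 72 hr at 37°C in low oxygen, in serum-free medium at 0.75% gametocytemia and 1.25% hematocrit. Counts of 20–70 µm2 red particles, taken from one field per well after MitoTracker Red CMXRos with saponin, were divided by the plate mean of solvent-only wells. This ratio is the viability index.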

Setting [1] is: library set: Broad Institute DOS.

Molecules are shown by their SMILES. ± gives the uncertainty stated by the source. Over roughly 9,900 compounds, “viability index relative to DMSO control” has its median near 1; the lowest 2% begin near 0.85. The list shows a part of the results.

As to `CN(C)C(=O)C[C@H]1CC[C@H]2[C@H](COc3ccc(NC(=O)C4CCCCC4)cc3C(=O)N2C)O1`, under setting [1], the viability index was 1.095 ± 0.0094.

Molecule `CO[C@H](CN(C)C(=O)Nc1ccc(Cl)cc1)[C@H](C)CN(Cc1ccccc1Cl)[C@H](C)CO` yielded a viability index under setting [1] of 0.993 ± 0.037.

Regarding `C[C@H](CO)N1C[C@H](C)[C@@H](CN(C)C(=O)c2ccccc2)Oc2ncc(C#Cc3ccccc3)cc2C1=O`, the viability index under setting [1] is 0.963 ± 0.029.

On to `Cc1ccccc1S(=O)(=O)N1C[C@@H](O)COC[C@H]2O[C@H](CC(=O)N3CCCCC3)CC[C@@H]21`, for which the viability index under setting [1] was determined as 1.009 ± 0.0066.

With `O=C(C[C@@H]1C[C@@H]2c3cc(NS(=O)(=O)c4ccc(F)cc4)ccc3O[C@@H]2[C@@H](CO)O1)NCCN1CCCCC1`, the viability index under setting [1] turned out to be 1.095 ± 0.0079.

In the case of `CC(=O)N1CC2(C1)[C@H](c1ccccc1)[C@H](CO)N2C(=O)Cc1ccccc1`, the viability index under setting [1] worked out at 1.04 ± 0.024.

As for `CO[C@@H]1CC[C@H]2CCOc3c(C#N)cccc3C(=O)N(C)C[C@@H](c3ccccc3)CC(=O)N(C)C[C@H]1O2`, the viability index under setting [1] worked out at 1.08 ± 0.16.

In turn, `COc1ccc(C#Cc2ccc([C@@H]3[C@H](CO)N4C(=O)CN(C(=O)NC(C)C)C[C@@H]34)cc2)cc1` displayed a viability index under setting [1] of 0.927 ± 0.076.

For `C[C@@H]1CN([C@@H](C)CO)C(=O)c2c(c3ccccc3n2C)-c2ccccc2CO[C@@H]1CN(C)C(=O)[C@@H](Cc1ccccc1)N(C)C`, the viability index under setting [1] turned out to be 0.965 ± 0.12.

Turning to `COc1ccc(NC(=O)N2C[C@@]3(C2)CN([C@H](CO)c2c3c3ccc(OC)cc3n2C)C(=O)C2CCC2)cc1`, the viability index (library set: Broad Institute Blood Stage) was found to be 0.841 ± 0.05.

In turn, `C/C=C/c1ccc([C@@H]2[C@@H](C#N)N(C(=O)NC3CCCCC3)[C@@H]2CO)cc1` yielded a viability index under setting [1] of 1.06 ± 0.062.

Under setting [1], `COc1ccc(S(=O)(=O)Nc2ccc3c(c2)CC(=O)N([C@@H](C)CO)C[C@H](C)[C@H](CN(C)C(=O)Nc2c(C)noc2C)O3)cc1` had a viability index of 0.972 ± 0.019.

With `COC(=O)C[C@H]1CC[C@H]2[C@@H](COC[C@@H](O)CN2S(=O)(=O)c2ccccc2OC)O1`, the viability index under setting [1] is 1.06 ± 0.036.

Under setting [1], `CN1C(=O)c2cc(NS(C)(=O)=O)ccc2OC[C@H]2O[C@@H](CC(=O)N3CCOCC3)CC[C@@H]21` came in with a viability index of 1.05 ± 0.016.

Under setting [1], `C[C@@H]1CN([C@H](C)CO)C(=O)c2cc(NC(=O)CCCCCC(=O)Nc3ccccc3N)ccc2O[C@@H](C)CCCCO[C@H]1CN(C)Cc1ccc(Cl)c(Cl)c1` registered a viability index of 0.902 ± 0.064.

For `CC(=O)N1[C@@H](CO)[C@H](c2ccccc2)[C@@H]1CN(CC(C)C)C(=O)c1ccccn1`, the viability index under setting [1] stood at 1.05 ± 0.061.

Under setting [1], `CN1C(=O)c2cc(NC(=O)c3cscn3)ccc2OC[C@@H]2O[C@H](CC(=O)NCc3ccc(Cl)c(Cl)c3)CC[C@H]21` showed a viability index of 0.978 ± 0.14.

`CC(C)(C)[S@@](=O)N1Cc2cc(C(=O)N3CCc4ccccc4C3)nc(-c3cccc(-c4cncnc4)c3)c2[C@H]1CCO` returned a viability index under setting [1] of 1.02 ± 0.053.

Under setting [1], `O=C(c1ccccn1)N1C[C@@H]2[C@H](c3ccccc31)[C@@H](CO)N2C(=O)Nc1ccccc1Cl` showed a viability index of 0.985 ± 0.012.
